The supplement of paper PMC4166925
± gives the standard deviation of the averaged measurements. The full ranking holds about 33,000 sequences; the median of “E-score (dimensionless, -0.5 to 0.5)” is about -0.046, and the highest 2% start at about 0.36. The list shows a part of the results.

Test system: T1, SpTbr T-box DNA-binding domain (GST fusion)
T1 sequence: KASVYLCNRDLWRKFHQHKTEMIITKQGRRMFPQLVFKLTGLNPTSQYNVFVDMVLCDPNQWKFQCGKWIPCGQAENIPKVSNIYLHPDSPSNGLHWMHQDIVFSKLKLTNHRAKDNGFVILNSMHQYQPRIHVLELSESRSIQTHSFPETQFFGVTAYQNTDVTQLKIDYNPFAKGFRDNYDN
Assay: PBM E-score of 8-mer (E-score (dimensionless, -0.5 to 0.5)); Tbr is Tbrain of the sea star Patiria miniata (Pm) or the sea urchin Strongylocentrotus purpuratus (Sp); higher = stronger binding preference; most listed sequences are background and not binding sites
Settings: the construct has about 5 more residues each side
Procedure, shortened: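 Expression of GST-fused Tbr T-box DNA-binding domains, each holding the full T-box plus roughly five flanking residues, was carried out in BL21 E. coli at 20 °C, with purification by glutathione affinity chromatography. Universal Agilent arrays made double-stranded by primer extension were incubated with the protein at 200 nM in PBS (pH 7.5), then scanned and quantified. All ungapped 8-mers were scored from probe intensities, and each received an enrichment E-score from the Universal PBM Analysis Suite, averaged over duplicate arrays.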

Sequence	PBM E-score of 8-mer
ACAGCGCC	0.0688 ± 0.022
AAGACCTA	-0.187 ± 0.046
CTCGGGTA	-0.25 ± 0.046
ACAGGTCA	0.161 ± 0.01
CGCCCGTC	0.0569 ± 0.029
AATACGGG	-0.245 ± 0.03
GTGTACTA	-0.0501 ± 0.068
GTCGGAAA	0.00439 ± 0.0032
ATTCTACG	-0.2 ± 0.078
GCGCCGCC	0.0262 ± 0.093
GTAAGGTA	-0.104 ± 0.09
AAAAAGCG	-0.0362 ± 0.19
ACCGACAA	-0.0797 ± 0.034
GGGGCTCA	-0.207 ± 0.0097
CACTTACA	0.226 ± 0.018
CCCTATCC	0.014 ± 0.014
AAAGAAAT	-0.0743 ± 0.075
GCTGTCGA	0.231 ± 0.04
ATTCCCCG	-0.087 ± 0.088
CACTGCTG	-0.167 ± 0.16
CATTTGAG	-0.167 ± 0.097
AATTTCAT	-0.0923 ± 0.093
CGGGACCA	-0.17 ± 0.021
CAACAGTA	-0.0249 ± 0.048
AATATTCA	-0.0119 ± 0.029

Sequence	PBM E-score of 8-mer
AAGTCCCA	-0.0384 ± 0.044
CTGAGTGA	0.0791 ± 0.047
AGTAGATC	-0.267 ± 0.0062
CAGTCAGA	-0.291 ± 0.01
CCGGGGGC	-0.15 ± 0.024
ACAGAGCT	-0.249 ± 0.026
CCGTATAA	-0.00481 ± 0.037
ACGTTTTA	-0.0319 ± 0.053
GACTATAC	-0.126 ± 0.016
TACCTTAA	-0.0756 ± 0.023
ACAAATAG	0.148 ± 0.09
CACCCCAA	0.289 ± 0.0097
CCCGTTTA	-0.0629 ± 0.076
AAATCGTT	-0.0755 ± 0.038
CCCTGCCA	0.0348 ± 0.072
CCAGGCAG	-0.0698 ± 0.14
GGTATTGA	-0.05841 ± 0.00042
GCCTTTAC	-0.0401 ± 0.061
AATACACT	-0.086 ± 0.005
GGTCTATA	-0.27 ± 0.0034
GTTGGGCA	0.111 ± 0.036
CTTGCCAC	0.305 ± 0.018
AGTGCTTA	0.0064 ± 0.1
AGTGGGCC	-0.0341 ± 0.051
GTGTAAAA	0.36 ± 0.021

Sequence	PBM E-score of 8-mer
CTCCTATC	0.00071 ± 0.081
ATGCGGGA	-0.193 ± 0.03
ATTTTAAA	-0.0399 ± 0.066
AAGTAGGT	0.13 ± 0.075
CGGATTGC	-0.0648 ± 0.046
CACTTCAC	0.39 ± 0.0097
AGCGCAAC	-0.062 ± 0.0096
ATGTTCTG	-0.2632 ± 0.00062
CCATTCCG	-0.0524 ± 0.026
TCAAACAA	-0.156 ± 0.023
CTTTGAAC	-0.0352 ± 0.028
AAGTCAAG	-0.061 ± 0.052
CGGTCGAA	-0.169 ± 0.06
GCATTAGC	0.182 ± 0.021
GGACCTCC	-0.327 ± 0.017
ATTCTCCC	-0.301 ± 0.014
CAGTCTGA	-0.137 ± 0.034
GGGTACCA	0.0313 ± 0.032
ATCGCCTA	-0.0778 ± 0.05
ACAGAGTA	-0.0148 ± 0.055
GAGAAATA	-0.0566 ± 0.049
AATAAGGC	-0.182 ± 0.018
ATCCAGAA	-0.175 ± 0.021
ATTAAGAA	-0.254 ± 0.043
ACGGTAGA	-0.158 ± 0.023

Sequence	PBM E-score of 8-mer
AGACAACG	-0.0213 ± 0.033
CGGATGAG	-0.175 ± 0.019
AATTATAC	-0.0993 ± 0.071
AAAAGAGA	0.0439 ± 0.02
CCTACACA	0.111 ± 0.019
ACCCATCG	0.0311 ± 0.045
TCAGCTGA	-0.331 ± 0.081
ACTTTGCG	0.176 ± 0.0057
ATGAGCAG	-0.029 ± 0.014
ACCATCCG	-0.0919 ± 0.04
ATGCCGGG	-0.205 ± 0.036
GTTGCTTA	-0.114 ± 0.0076
AACTTTGC	0.134 ± 0.0063
CGAGTTTA	0.127 ± 0.064
AACATCCG	-0.0978 ± 0.01
GCGTGTTA	0.302 ± 0.018
CCACTTTA	0.0213 ± 0.0022
AAACCGAA	-0.0901 ± 0.072
CCAAATTA	-0.0884 ± 0.034
CCCTAACG	-0.104 ± 0.049
CACTAAGG	-0.0643 ± 0.08
ACACATAT	0.407 ± 0.0072
CTGAGGTA	-0.0862 ± 0.025
CAATGACC	-0.105 ± 0.041
GCGTGATA	0.363 ± 0.0041

Sequence	PBM E-score of 8-mer
AAAGTGCC	0.17 ± 0.071
CATTGTTC	-0.157 ± 0.0097
GCTATTGA	0.0355 ± 0.001
AATAGCCG	-0.00329 ± 0.054
ACTTCATA	-0.0145 ± 0.018
ACAGTGCA	-0.0284 ± 0.09
CACGGATA	-0.124 ± 0.013
ACTGCAAG	-0.158 ± 0.07
CTGCCAGC	0.0132 ± 0.024
CCAGAGTA	-0.1903 ± 0.00049
GGAGAGTA	-0.181 ± 0.038
CACTTATA	0.169 ± 0.011
TCTTAGAA	-0.174 ± 0.0046
ACCATCGC	0.184 ± 0.056
ACTTTTGA	-0.0941 ± 0.084
ACAATACG	0.00636 ± 0.045
CGACTTCA	0.0761 ± 0.038
ACACACTG	0.143 ± 0.0015
AGGATTGG	-0.0109 ± 0.032
CCCAACCG	-0.123 ± 0.026
CACAAGTA	0.136 ± 0.028
AACCGCTC	-0.0893 ± 0.047
AGAGATCG	0.0319 ± 0.044
AGAAGCAA	-0.102 ± 0.078
AATCCACT	-0.181 ± 0.026

Sequence	PBM E-score of 8-mer
GCCTCGCA	0.119 ± 0.022
CATGTAAG	0.0432 ± 0.022
CTAAGGCC	-0.257 ± 0.059
CCGAGGAA	-0.274 ± 0.065
ACGTGTCT	0.204 ± 0.034
CGATGGGA	-0.181 ± 0.087
CCAGGGAA	-0.149 ± 0.05
GTGTCACA	0.436 ± 0.011
ACGTTACC	0.0489 ± 0.019
TGGGTTAA	-0.0208 ± 0.0051
ACACCTGG	0.44 ± 0.029
GAAGGTCC	-0.148 ± 0.022
GGTCAATA	-0.216 ± 0.074
ATGGTTCG	0.126 ± 0.032
GCAGCAGC	-0.0756 ± 0.038
ACGTACAG	0.0581 ± 0.0014
ACGACGCG	0.105 ± 0.1
CACTGTGG	-0.142 ± 0.096
GCACATCA	0.135 ± 0.035
TAGACTAA	-0.229 ± 0.035
AGGAGATG	-0.0796 ± 0.025
CGTTGATA	0.0605 ± 0.049
GGGCCAAA	-0.158 ± 0.0097
GTTCCAGA	-0.235 ± 0.0034
ATTCAATC	0.0196 ± 0.053

Sequence	PBM E-score of 8-mer
GAGTTGGC	0.0652 ± 0.087
CCGGAAGA	-0.0281 ± 0.014
AGTAAGGC	0.0629 ± 0.074
AAACCATC	-0.0776 ± 0.02
AACCGACG	-0.0597 ± 0.014
CCCCAATA	-0.0532 ± 0.049
AGTTCTAA	-0.1082 ± 0.00016
ACCACGCA	-0.00904 ± 0.12
CATACGCC	-0.0482 ± 0.023
AGTGACTC	-0.0563 ± 0.09
CTAGTGTC	0.205 ± 0.017
AGGACGTG	0.162 ± 0.012
GTTCTCGA	0.153 ± 0.004
AATTAATT	-0.0217 ± 0.12
GTTCGATA	-0.109 ± 0.079
TAAGTCGA	0.059 ± 0.049
ATCCGGGC	-0.22 ± 0.081
AATCCCCG	-0.0831 ± 0.043
AGGCCCCC	-0.346 ± 0.0094
CTGGATAA	-0.167 ± 0.056
GCTTTTTA	0.041 ± 0.1
ACTTATGA	-0.0354 ± 0.033
